System: two-spotted spider mites (Tetranychus urticae)
Settings: 500 ppm liquid composition; similar test to the aphid test

Structure (SMILES): CCCCCn1nc2ccc(CC(=O)Nc3snc(C)c3Cl)cc2n1 [Sample 9]
- mortality score: 5 (5 indicates 40–79% mortality)
